According to patent US10299477B2 (priority 2015, dated 2019):

Legend:
Magnaporthe grisea = format: in vivo; conditions: Blast on rice
Phytophthora infestans = format: in vivo; conditions: Late blight on tomato; 250 ppm sprayed before inoculation; 5-10 days after inoculation

CCn1c(-c2c(F)cccc2F)c(-c2cc(OCOC)ccc2Cl)ccc1=O [Compound 97, 5-(2-chloro-5-(methoxymethoxy)phenyl)-6-(2,6-difluorophenyl)-1-ethylpyridine-2(1H)-one]
Test A control value (Magnaporthe grisea): H (H shows more than 50% of control values) | Test F control value (Phytophthora infestans): L (L shows 50% or less of control values)

CCn1c(-c2c(F)cccc2F)c(-c2cc(OCC#N)ccc2Cl)ccc1=O [Compound 98]
Test A control value (Magnaporthe grisea): H (H shows more than 50% of control values) | Test F control value (Phytophthora infestans): L (L shows 50% or less of control values)

CCOc1ccc(Cl)c(-c2ccc(=O)n(CC)c2-c2c(F)cccc2F)c1 [Compound 99]
Test A control value (Magnaporthe grisea): H (H shows more than 50% of control values) | Test F control value (Phytophthora infestans): L (L shows 50% or less of control values)

CCn1c(-c2c(F)cccc2F)c(-c2cccc(OCOC)c2)ccc1=O [Compound 101]
Test A control value (Magnaporthe grisea): H (H shows more than 50% of control values) | Test F control value (Phytophthora infestans): L (L shows 50% or less of control values)

CCn1c(-c2c(F)cccc2F)c(-c2cccc(OCC#N)c2)ccc1=O [Compound 102]
Test A control value (Magnaporthe grisea): H (H shows more than 50% of control values) | Test F control value (Phytophthora infestans): L (L shows 50% or less of control values)

CCOc1cccc(-c2ccc(=O)n(CC)c2-c2c(F)cccc2F)c1 [Compound 103]
Test A control value (Magnaporthe grisea): H (H shows more than 50% of control values) | Test F control value (Phytophthora infestans): L (L shows 50% or less of control values)

CCn1c(-c2c(F)cccc2F)c(-c2cc(OCOC)ccc2Cl)cc(Br)c1=O [Compound 126]
Test A control value (Magnaporthe grisea): H (H shows more than 50% of control values) | Test F control value (Phytophthora infestans): L (L shows 50% or less of control values)

CCn1c(-c2c(F)cccc2F)c(-c2cc(OCOC)ccc2Cl)cc(Cl)c1=O [Compound 127, 3-chloro-5-(2-chloro-5-(methoxymethoxy)phenyl)-6-(2,6-difluorophenyl)-1-ethylpyridine-2(1H)-one]
Test A control value (Magnaporthe grisea): H (H shows more than 50% of control values) | Test F control value (Phytophthora infestans): L (L shows 50% or less of control values)

CCn1c(-c2c(F)cccc2F)c(-c2cc(OCC#N)ccc2Cl)cc(Br)c1=O [Compound 128]
Test A control value (Magnaporthe grisea): H (H shows more than 50% of control values) | Test F control value (Phytophthora infestans): L (L shows 50% or less of control values)

CCn1c(-c2c(F)cccc2F)c(-c2cc(OCC#N)ccc2Cl)cc(Cl)c1=O [Compound 129]
Test A control value (Magnaporthe grisea): H (H shows more than 50% of control values) | Test F control value (Phytophthora infestans): L (L shows 50% or less of control values)

COc1cc(OC)c(Cl)c(-c2ccc(=O)n(C)c2-c2c(F)cc(F)cc2F)c1 [Compound 136, 5-(2-chloro-3,5-dimethoxyphenyl)-1-methyl-6-(2,4,6-trifluorophenyl)pyridine-2(1H)-one]
Test A control value (Magnaporthe grisea): H (H shows more than 50% of control values) | Test F control value (Phytophthora infestans): H (H shows more than 50% of control values)

Cn1c(-c2c(F)cccc2F)c(-c2ccccc2F)ccc1=O [Compound 143]
Test A control value (Magnaporthe grisea): H (H shows more than 50% of control values) | Test F control value (Phytophthora infestans): L (L shows 50% or less of control values)

Cn1c(-c2c(F)cccc2F)c(-c2ccccc2F)cc(Cl)c1=O [Compound 144]
Test A control value (Magnaporthe grisea): H (H shows more than 50% of control values) | Test F control value (Phytophthora infestans): L (L shows 50% or less of control values)

Cn1c(-c2c(F)cccc2F)c(-c2ccccc2F)cc(Br)c1=O [Compound 145]
Test A control value (Magnaporthe grisea): H (H shows more than 50% of control values) | Test F control value (Phytophthora infestans): H (H shows more than 50% of control values)

CCn1c(-c2c(F)cccc2F)c(-c2ccccc2C(F)(F)F)ccc1=O [Compound 146]
Test A control value (Magnaporthe grisea): H (H shows more than 50% of control values) | Test F control value (Phytophthora infestans): L (L shows 50% or less of control values)

CCn1c(-c2c(F)cccc2F)c(-c2ccccc2C(F)(F)F)cc(Cl)c1=O [Compound 147]
Test A control value (Magnaporthe grisea): L (L shows 50% or less of control values) | Test F control value (Phytophthora infestans): L (L shows 50% or less of control values)

CCn1c(-c2c(F)cccc2F)c(-c2ccccc2C(F)(F)F)cc(Br)c1=O [Compound 148]
Test A control value (Magnaporthe grisea): H (H shows more than 50% of control values) | Test F control value (Phytophthora infestans): L (L shows 50% or less of control values)

CCN1C(=O)CCC(c2cc(OC)cc(OC)c2)=C1c1c(F)cccc1Cl [Compound 149]
Test A control value (Magnaporthe grisea): H (H shows more than 50% of control values) | Test F control value (Phytophthora infestans): L (L shows 50% or less of control values)

CCn1c(-c2c(F)cccc2Cl)c(-c2cc(OC)cc(OC)c2)ccc1=O [Compound 150]
Test A control value (Magnaporthe grisea): L (L shows 50% or less of control values) | Test F control value (Phytophthora infestans): L (L shows 50% or less of control values)

CCn1c(-c2c(F)cccc2Cl)c(-c2cc(OC)cc(OC)c2Br)ccc1=O [Compound 151]
Test A control value (Magnaporthe grisea): H (H shows more than 50% of control values) | Test F control value (Phytophthora infestans): L (L shows 50% or less of control values)

CCn1c(-c2c(F)cccc2Cl)c(-c2cc(OC)cc(OC)c2Cl)ccc1=O [Compound 152]
Test A control value (Magnaporthe grisea): H (H shows more than 50% of control values) | Test F control value (Phytophthora infestans): L (L shows 50% or less of control values)

CCn1c(-c2c(F)cccc2F)c(-c2cccc(F)c2)ccc1=O [Compound 153]
Test A control value (Magnaporthe grisea): H (H shows more than 50% of control values) | Test F control value (Phytophthora infestans): H (H shows more than 50% of control values)

CCn1c(-c2c(F)cccc2F)c(-c2cccc(F)c2)cc(Cl)c1=O [Compound 154]
Test A control value (Magnaporthe grisea): H (H shows more than 50% of control values) | Test F control value (Phytophthora infestans): L (L shows 50% or less of control values)

CCn1c(-c2c(F)cccc2F)c(-c2cccc(F)c2)cc(Br)c1=O [Compound 155]
Test A control value (Magnaporthe grisea): H (H shows more than 50% of control values) | Test F control value (Phytophthora infestans): L (L shows 50% or less of control values)

CCN1C(=O)CCC(c2cccc(F)c2)=C1c1c(F)cccc1F [Compound 156]
Test A control value (Magnaporthe grisea): H (H shows more than 50% of control values) | Test F control value (Phytophthora infestans): H (H shows more than 50% of control values)

Cn1c(-c2c(F)cccc2F)c(-c2ccccc2C(F)(F)F)ccc1=O [Compound 157]
Test A control value (Magnaporthe grisea): H (H shows more than 50% of control values) | Test F control value (Phytophthora infestans): L (L shows 50% or less of control values)

Cn1c(-c2c(F)cccc2F)c(-c2ccccc2C(F)(F)F)cc(Cl)c1=O [Compound 158]
Test A control value (Magnaporthe grisea): H (H shows more than 50% of control values) | Test F control value (Phytophthora infestans): L (L shows 50% or less of control values)

Cn1c(-c2c(F)cccc2F)c(-c2ccccc2C(F)(F)F)cc(Br)c1=O [Compound 159]
Test A control value (Magnaporthe grisea): H (H shows more than 50% of control values) | Test F control value (Phytophthora infestans): L (L shows 50% or less of control values)

CCn1c(-c2c(F)cccc2F)c(-c2ccccc2C)ccc1=O [Compound 160]
Test A control value (Magnaporthe grisea): H (H shows more than 50% of control values) | Test F control value (Phytophthora infestans): H (H shows more than 50% of control values)

CCn1c(-c2c(F)cccc2F)c(-c2ccccc2C)cc(Cl)c1=O [Compound 161]
Test A control value (Magnaporthe grisea): H (H shows more than 50% of control values) | Test F control value (Phytophthora infestans): L (L shows 50% or less of control values)

CCn1c(-c2c(F)cccc2F)c(-c2ccccc2C)cc(Br)c1=O [Compound 162]
Test A control value (Magnaporthe grisea): H (H shows more than 50% of control values) | Test F control value (Phytophthora infestans): L (L shows 50% or less of control values)

COc1cc(OC)cc(C2=C(c3c(F)cccc3Cl)N(C)C(=O)CC2)c1 [Compound 163]
Test A control value (Magnaporthe grisea): H (H shows more than 50% of control values) | Test F control value (Phytophthora infestans): L (L shows 50% or less of control values)

COc1cc(OC)cc(-c2ccc(=O)n(C)c2-c2c(F)cccc2Cl)c1 [Compound 164]
Test A control value (Magnaporthe grisea): H (H shows more than 50% of control values) | Test F control value (Phytophthora infestans): L (L shows 50% or less of control values)

COc1cc(OC)c(Br)c(-c2ccc(=O)n(C)c2-c2c(F)cccc2Cl)c1 [Compound 165]
Test A control value (Magnaporthe grisea): H (H shows more than 50% of control values) | Test F control value (Phytophthora infestans): H (H shows more than 50% of control values)

COc1cc(OC)c(Cl)c(-c2ccc(=O)n(C)c2-c2c(F)cccc2Cl)c1 [Compound 166]
Test A control value (Magnaporthe grisea): H (H shows more than 50% of control values) | Test F control value (Phytophthora infestans): H (H shows more than 50% of control values)

CCn1c(-c2c(F)cccc2Cl)c(-c2c(Cl)c(OC)cc(OC)c2Cl)cc(Cl)c1=O [Compound 167]
Test A control value (Magnaporthe grisea): H (H shows more than 50% of control values) | Test F control value (Phytophthora infestans): L (L shows 50% or less of control values)

Cn1c(-c2c(F)cccc2F)c(-c2cccc(F)c2)ccc1=O [Compound 168]
Test A control value (Magnaporthe grisea): H (H shows more than 50% of control values) | Test F control value (Phytophthora infestans): H (H shows more than 50% of control values)

Cn1c(-c2c(F)cccc2F)c(-c2cccc(F)c2)cc(Cl)c1=O [Compound 169]
Test A control value (Magnaporthe grisea): H (H shows more than 50% of control values) | Test F control value (Phytophthora infestans): L (L shows 50% or less of control values)

Cn1c(-c2c(F)cccc2F)c(-c2cccc(F)c2)cc(Br)c1=O [Compound 170]
Test A control value (Magnaporthe grisea): H (H shows more than 50% of control values) | Test F control value (Phytophthora infestans): L (L shows 50% or less of control values)

CCn1c(-c2c(F)cccc2F)c(-c2cccc(Cl)c2)ccc1=O [Compound 171]
Test A control value (Magnaporthe grisea): H (H shows more than 50% of control values) | Test F control value (Phytophthora infestans): L (L shows 50% or less of control values)

CN1C(=O)CCC(c2cccc(F)c2)=C1c1c(F)cccc1F [Compound 172]
Test A control value (Magnaporthe grisea): H (H shows more than 50% of control values) | Test F control value (Phytophthora infestans): H (H shows more than 50% of control values)

CCN1C(=O)CCC(c2cccc(Cl)c2)=C1c1c(F)cccc1F [Compound 173]
Test A control value (Magnaporthe grisea): H (H shows more than 50% of control values) | Test F control value (Phytophthora infestans): H (H shows more than 50% of control values)

CCN1C(=O)CCC(c2cc(OC)cc(OC)c2)=C1c1c(F)cccc1Br [Compound 174]
Test A control value (Magnaporthe grisea): H (H shows more than 50% of control values) | Test F control value (Phytophthora infestans): L (L shows 50% or less of control values)
